PMC10715591, “EspB and HtpG interact with the type III-A CRISPR/Cas system of Mycobacterium tuberculosis” (Frontiers in Molecular Biosciences, 2023)

Target: T1, MtbCsm1 (Mycobacterium tuberculosis, UniProt P71629 1-809)
T1 construct: also called Cas10; MtbMBP-csm1
T1 sequence: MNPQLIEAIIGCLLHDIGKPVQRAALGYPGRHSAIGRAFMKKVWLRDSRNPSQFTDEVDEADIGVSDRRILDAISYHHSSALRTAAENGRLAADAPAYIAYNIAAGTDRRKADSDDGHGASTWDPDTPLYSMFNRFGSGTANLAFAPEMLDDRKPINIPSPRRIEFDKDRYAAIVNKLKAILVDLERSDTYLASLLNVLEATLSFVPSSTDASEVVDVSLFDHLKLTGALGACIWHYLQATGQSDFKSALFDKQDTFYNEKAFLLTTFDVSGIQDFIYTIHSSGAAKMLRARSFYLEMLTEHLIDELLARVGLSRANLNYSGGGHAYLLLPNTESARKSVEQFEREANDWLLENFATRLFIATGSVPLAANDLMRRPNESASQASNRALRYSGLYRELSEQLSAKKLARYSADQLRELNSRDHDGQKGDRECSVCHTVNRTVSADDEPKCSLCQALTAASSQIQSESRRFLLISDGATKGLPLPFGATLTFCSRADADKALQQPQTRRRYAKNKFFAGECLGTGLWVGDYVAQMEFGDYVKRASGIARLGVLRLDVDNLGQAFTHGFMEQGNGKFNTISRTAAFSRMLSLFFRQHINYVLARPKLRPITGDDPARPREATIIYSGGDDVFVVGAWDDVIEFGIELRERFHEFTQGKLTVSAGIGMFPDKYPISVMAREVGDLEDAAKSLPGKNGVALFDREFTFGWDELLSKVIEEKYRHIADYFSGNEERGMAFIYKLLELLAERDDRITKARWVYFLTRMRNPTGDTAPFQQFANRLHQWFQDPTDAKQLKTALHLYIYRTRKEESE
Assay: SPR; Biacore 8K, 25°C; EspB covalently immobilised on a CM5 chip; analytes injected at 25-3,200 nM, 30 uL/min for 2 min; global fit to a 1:1 mass transport model
Conditions: both partners purified

B1: ESX-1 secretion-associated protein EspB (natural protein)
chain: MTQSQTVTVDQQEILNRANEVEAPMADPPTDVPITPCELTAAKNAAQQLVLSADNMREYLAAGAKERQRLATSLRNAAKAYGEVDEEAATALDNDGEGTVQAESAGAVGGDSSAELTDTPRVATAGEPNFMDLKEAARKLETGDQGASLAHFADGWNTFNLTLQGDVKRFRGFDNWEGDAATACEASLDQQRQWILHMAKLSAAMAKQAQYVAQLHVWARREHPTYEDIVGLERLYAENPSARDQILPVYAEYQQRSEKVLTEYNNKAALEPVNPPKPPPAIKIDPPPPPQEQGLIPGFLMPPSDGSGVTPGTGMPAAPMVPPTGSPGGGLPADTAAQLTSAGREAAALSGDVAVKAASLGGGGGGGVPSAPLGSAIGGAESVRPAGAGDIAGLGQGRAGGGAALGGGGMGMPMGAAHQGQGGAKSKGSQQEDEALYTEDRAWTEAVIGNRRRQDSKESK
notes: also called Esx-1 secreted protein B
  Kd: 16.7 nM
  koff: 0.000792 s⁻¹
  kon: 47300 M⁻¹ s⁻¹
